The labels stand for the following.
B1: TEV protease; numbered along this chain (parent)
chain: MGESLFKGPRDYNPISSSICHLTNESDGHTTSLYGIGFGPFIITNKHLFRRNNGTLVVQSLHGVFKVKDTTTLQQHLVDGRDMIIIRMPKDFPPFPQKLKFREPQREERICLVTTNFQTKSMSSMVSDTSCTFPSGDGIFWKHWIQTKDGQCGSPLVSTRDGFIVGIHSASNFTNTNNYFTSVPKNFMELLTNQEAQQWVSGWRLNADSVLWGGHKVFMVKPEEPFQPVKEATQL

Some of the results follow. The full chains were built here from the parent and the listed change. Values near 0.05 are background.

Variants of B1 are the subject of this experiment. The experiment in a line: raw area under fraction-flipped curve 0-4 h after induction (AUC4h, not background-subtracted), DNA-recorder readout of cleavage of the substrate (dimensionless); higher = more cleavage of the substrate by the protease variant. The settings on record: temperature: 34 °C; time window: 0-4 h after rhamnose induction.
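Further: Bxb1 expression induced with 0.2% (w/v) L-rhamnose at OD600 near 0.5, cultures sampled hourly, flipped fraction per protease–substrate barcode pair counted by paired-end Illumina sequencing.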

For MGESLFKGPRDYNPISSSICHLTNESDGHTTSLYGIGFGPFIITNKHLFRRNNGTLVVQSLHGVFKVKDTTTLQQHLVDGRDMIIIRMPKDFPPFPQKLKFREPQREERICLVTTNFQTKSMSSMVSDTSCTFPSGDGIFWKHWIQTKDGQCGSPLVSTRDGFIVGIHSASNFTNTNNYFTSVPKNFMELLTNQEAQQWVSGWRLNADSVLWGGHKVFMVKPEEWFQPVKEATQL [P225W], the “area with substrate EALYFQS” value came to 0.0907, the “area with substrate ECLYFQS” value amounted to 0.102, the “area with substrate EELYFQS” value amounted to 0.079 and the “area with substrate EGLYFQS” value was 0.11. In addition, the “area with substrate EILYFQS” value worked out at 0.0901, the “area with substrate EKLYFQS” value amounted to 0.106, the “area with substrate ELLYFQS” value was determined as 0.0853 and the “area with substrate EMLYFQS” value is 0.0941. For the same variant, the “area with substrate EQLYFQS” value was 0.107, the “area with substrate ERLYFQS” value stood at 0.0899, the “area with substrate ESLYFQS” value worked out at 0.102 and the “area with substrate ETLYFQS” value is 0.132. Moreover, the “area with substrate EVLYFQS” value was found to be 0.0875 and the “area with substrate EWLYFQS” value came out at 0.0746.
On to MGESLFKGPRDYNPISSSICHLTNESDGHTTSLYGIGFGPFIITNKHLFRRNNGTLVVQSLHGVFKVKDTTTLQQHLVDGRDMIIIRMPKDFPPFPQKLKFREPQREERICLVTTNFQTKSMSSMVSDTSCTFPSGDGIFWKHWIQTKDGQCGSPLVSTRDGFIVGIHSASNFTNTNNYFTSVPKNFMELLTNQEAQQWVSGWRLNADSVLWGGHKVFMVKPEERFQPVKEATQL [P225R], for which the “area with substrate EALYFQS” value was determined as 0.111, the “area with substrate ECLYFQS” value turned out to be 0.081, the “area with substrate EELYFQS” value is 0.1 and the “area with substrate EFLYFQS” value was found to be 0.106. The “area with substrate EGLYFQS” value was 0.0931, the “area with substrate EHLYFQS” value turned out to be 0.108, the “area with substrate EILYFQS” value was determined as 0.0859 and the “area with substrate EKLYFQS” value was determined as 0.0994. Besides, the “area with substrate ELLYFQS” value worked out at 0.0886, the “area with substrate EMLYFQS” value is 0.0957, the “area with substrate EQLYFQS” value amounted to 0.118 and the “area with substrate ERLYFQS” value worked out at 0.102. Besides, the “area with substrate ESLYFQS” value was 0.107, the “area with substrate EVLYFQS” value turned out to be 0.101, the “area with substrate EWLYFQS” value stood at 0.0954 and the “area with substrate EYLYFQS” value stood at 0.0816.
Consider MGESLFKGPRDYNPISSSICHLTNESDGHTTSLYGIGFGPFIITNKHLFRRNNGTLVVQSLHGVFKVKDTTTLQQHLVDGRDMIIIRMPKDFPPFPQKLKFREPQREERICLVTTNFQTKSMSSMVSDTSCTFPSGDGIFWKHWIQTKDGQCGSPLVSTRDGFIVGIHSASNFTNTNNYFTSVPKNFMELLTNQEAQQWVSGWRLNADSVLWGGHKVFMVKPEETFQPVKEATQL [P225T], for which the “area with substrate EALYFQS” value was found to be 0.109, the “area with substrate ECLYFQS” value worked out at 0.121, the “area with substrate EDLYFQS” value was 0.144 and the “area with substrate EELYFQS” value came to 0.103. Further, the “area with substrate EGLYFQS” value was determined as 0.0969, the “area with substrate EILYFQS” value was found to be 0.0895, the “area with substrate ELLYFQS” value was determined as 0.102 and the “area with substrate EPLYFQS” value came out at 0.122. For the same variant, the “area with substrate EQLYFQS” value stood at 0.0923, the “area with substrate ERLYFQS” value was 0.097, the “area with substrate ESLYFQS” value turned out to be 0.0996 and the “area with substrate ETLYFQS” value came to 0.102. In addition, the “area with substrate EVLYFQS” value is 0.125 and the “area with substrate EWLYFQS” value worked out at 0.0803.
Regarding MGESLFKGPRDYNPISSSICHLTNESDGHTTSLYGIGFGPFIITNKHLFRRNNGTLVVQSLHGVFKVKDTTTLQQHLVDGRDMIIIRMPKDFPPFPQKLKFREPQREERICLVTTNFQTKSMSSMVSDTSCTFPSGDGIFWKHWIQTKDGQCGSPLVSTRDGFIVGIHSASNFTNTNNYFTSVPKNFMELLTNQEAQQWVSGWRLNADSVLWGGHKVFMVKPEEPFQNVKEATQL [P228N], the “area with substrate EALYFQS” value was found to be 0.132, the “area with substrate ECLYFQS” value is 0.104, the “area with substrate EELYFQS” value is 0.124 and the “area with substrate EFLYFQS” value stood at 0.137. Also, the “area with substrate EGLYFQS” value is 0.113, the “area with substrate EILYFQS” value amounted to 0.0978, the “area with substrate EKLYFQS” value was determined as 0.116 and the “area with substrate EPLYFQS” value came to 0.125. The “area with substrate EQLYFQS” value is 0.121, the “area with substrate ERLYFQS” value is 0.109, the “area with substrate ESLYFQS” value came to 0.0956 and the “area with substrate EVLYFQS” value stood at 0.0933. Besides, the “area with substrate EWLYFQS” value was determined as 0.111.
For MGESLFKGPRDYNPISSSICHLTNESDGHTTSLYGIGFGPFIITNKHLFRRNNGTLVVQSLHGVFKVKDTTTLQQHLVDGRDMIIIRMPKDFPPFPQKLKFREPQREERICLVTTNFQTKSMSSMVSDTSCTFPSGDGIFWKHWIQTKDGQCGSPLVSTRDGFIVGIHSASNFTNTNNYFTSVPKNFMELLTNQEAQQWVSGWRLNADSVLWGGHKVFMVKPEEPFEPVKEATQL [Q227E], the “area with substrate EALYFQS” value worked out at 0.107, the “area with substrate ECLYFQS” value is 0.127, the “area with substrate EDLYFQS” value was found to be 0.137 and the “area with substrate EELYFQS” value came to 0.142. Also, the “area with substrate EGLYFQS” value came out at 0.0914, the “area with substrate EHLYFQS” value came out at 0.101, the “area with substrate EILYFQS” value was determined as 0.0978 and the “area with substrate EKLYFQS” value came out at 0.124. Moreover, the “area with substrate EMLYFQS” value came out at 0.0877, the “area with substrate EPLYFQS” value came to 0.112, the “area with substrate EQLYFQS” value is 0.174 and the “area with substrate ERLYFQS” value is 0.103. Moreover, the “area with substrate ESLYFQS” value turned out to be 0.108, the “area with substrate EVLYFQS” value turned out to be 0.111 and the “area with substrate EWLYFQS” value was 0.117.
On to MGESLFKGPRDYNPISSSICHLTNESDGHTTSLYGIGFGPFIITNKHLFRRNNGTLVVQSLHGVFKVKDTTTLQQHLVDGRDMIIIRMPKDFPPFPQKLKFREPQREERICLVTTNFQTKSMSSMVSDTSCTFPSGDGIFWKHWIQTKDGQCGSPLVSTRDGFIVGIHSASNFTNTNNYFTSVPKNFMELLTNQEAQQWVSGWRLNADSVLWGGHKVFMVKPEEPFPPVKEATQL [Q227P], for which the “area with substrate EALYFQS” value came out at 0.101, the “area with substrate ECLYFQS” value came out at 0.158, the “area with substrate EDLYFQS” value is 0.161 and the “area with substrate EHLYFQS” value amounted to 0.0901. Moreover, the “area with substrate EILYFQS” value is 0.0976, the “area with substrate EKLYFQS” value is 0.11, the “area with substrate EMLYFQS” value worked out at 0.101 and the “area with substrate EQLYFQS” value is 0.129. The “area with substrate ESLYFQS” value came to 0.127, the “area with substrate EVLYFQS” value worked out at 0.115, the “area with substrate EWLYFQS” value is 0.112 and the “area with substrate EYLYFQS” value is 0.121.
As to MGESLFKGPRDYNPISSSICHLTNESDGHTTSLYGIGFGPFIITNKHLFRRNNGTLVVQSLHGVFKVKDTTTLQQHLVDGRDMIIIRMPKDFPPFPQKLKFREPQREERICLVTTNFQTKSMSSMVSDTSCTFPSGDGIFWKHWIQTKDGQCGSPLVSTRDGFIVGIHSASNFTNTNNYFTSVPKNFMELLTNQEAQQWVSGWRLNADSVLWGGHKVFMVKPEEPFMPVKEATQL [Q227M], the “area with substrate EALYFQS” value came out at 0.108, the “area with substrate ECLYFQS” value came out at 0.0938, the “area with substrate EDLYFQS” value was determined as 0.11 and the “area with substrate EELYFQS” value is 0.11. Also, the “area with substrate EGLYFQS” value came out at 0.0893, the “area with substrate EHLYFQS” value worked out at 0.114, the “area with substrate EILYFQS” value was determined as 0.0885 and the “area with substrate EKLYFQS” value came out at 0.118. Also, the “area with substrate ELLYFQS” value is 0.0713, the “area with substrate EMLYFQS” value was 0.0851, the “area with substrate EPLYFQS” value was found to be 0.0975 and the “area with substrate EQLYFQS” value was determined as 0.114. Also, the “area with substrate ERLYFQS” value was 0.0936, the “area with substrate ESLYFQS” value was 0.112 and the “area with substrate EVLYFQS” value was 0.12.
Turning to MGESLFKGPRDYNPISSSICHLTNESDGHTTSLYGIGFGPFIITNKHLFRRNNGTLVVQSLHGVFKVKDTTTLQQHLVDGRDMIIIRMPKDFPPFPQKLKFREPQREERICLVTTNFQTKSMSSMVSDTSCTFPSGDGIFWKHWIQTKDGQCGSPLVSTRDGFIVGIHSASNFTNTNNYFTSVPKNFMELLTNQEAQQWVSGWRLNADSVLWGGHKVFMVKPEEPFQPHKEATQL [V229H], the “area with substrate EALYFQS” value amounted to 0.092, the “area with substrate ECLYFQS” value amounted to 0.13, the “area with substrate EDLYFQS” value came out at 0.119 and the “area with substrate ELLYFQS” value worked out at 0.128. Further, the “area with substrate EMLYFQS” value is 0.102, the “area with substrate EPLYFQS” value was found to be 0.151, the “area with substrate ESLYFQS” value was 0.0894 and the “area with substrate EVLYFQS” value is 0.0917.
Turning to MGESLFKGPRDYNPISSSICHLTNESDGHTTSLYGIGFGPFIITNKHLFRRNNGTLVVQSLHGVFKVKDTTTLQQHLVDGRDMIIIRMPKDFPPFPQKLKFREPQREERICLVTTNFQTKSMSSMVSDTSCTFPSGDGIFWKHWIQTKDGQCGSPLVSTRDGFIVGIHSASNFTNTNNYFTSVPKNFMELLTNQEAQQWVSGWRLNADSVLWGGHKVFMVKPEEPYQPVKEATQL [F226Y], the “area with substrate EALYFQS” value amounted to 0.126, the “area with substrate ECLYFQS” value came out at 0.137, the “area with substrate EDLYFQS” value was found to be 0.146 and the “area with substrate EELYFQS” value turned out to be 0.129. Besides, the “area with substrate EFLYFQS” value amounted to 0.108, the “area with substrate EILYFQS” value stood at 0.117, the “area with substrate EKLYFQS” value stood at 0.127 and the “area with substrate ELLYFQS” value stood at 0.0813. Moreover, the “area with substrate EMLYFQS” value is 0.15, the “area with substrate EPLYFQS” value was determined as 0.158, the “area with substrate EQLYFQS” value stood at 0.0529 and the “area with substrate ERLYFQS” value was determined as 0.121. In addition, the “area with substrate ESLYFQS” value came to 0.108, the “area with substrate EWLYFQS” value stood at 0.101 and the “area with substrate EYLYFQS” value stood at 0.0981.

Values taken from the supplement of paper PMC12217912.
